Experimental data from PubChem BioAssay AID588342 (National Center for Advancing Translational Sciences (NCATS), 2011).
The campaign covered roughly 360,000 compounds. About 25,000 (6.9%) were called active. Inconclusive results, whose numbers are uncertain, are shown with a selection of clear calls. Calls follow the shape of the dose curve; as a rule, active = well fitted inhibition curve with a large enough effect; inconclusive = small, poorly fitted or top-dose-only effect; inactive = flat fitted curve, though single readings scatter. A potency beside an inconclusive call is a rough fit, not a confirmed value.

molecular target: Luciferin 4-monooxygenase (Photinus pyralis) (UniProt P08659); assay: qHTS profiling assay for firefly luciferase inhibitor/activator using purifed enzyme and Km concentrations of substrates (counterscreen for miR-21 project); settings: purified FLuc, luminescence inhibition; activity change, negative = inhibition: at 57.5 µM (top of the series); also: nearly all actives have a fitted effect of over 55% in size;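 as to activity change, negative = inhibition: plate controls were vehicle for no effect and reference inhibitor for full effect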
Outline: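 Purified P. pyralis luciferase (10nM final) with 10uM D-luciferin and 10uM ATP (Km levels) in 50mM Tris acetate pH 7.5, 10mM Mg acetate, 0.01% Tween-20, 0.05% BSA; qHTS 6-point titration, ~60 µM downward; luminescence read.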
Potency is read from the fitted curve at half-maximal effect; tags tell the direction and shape of the fitted curve.

Sequence of UniProt P08659 (P08659 whole entry, looked up): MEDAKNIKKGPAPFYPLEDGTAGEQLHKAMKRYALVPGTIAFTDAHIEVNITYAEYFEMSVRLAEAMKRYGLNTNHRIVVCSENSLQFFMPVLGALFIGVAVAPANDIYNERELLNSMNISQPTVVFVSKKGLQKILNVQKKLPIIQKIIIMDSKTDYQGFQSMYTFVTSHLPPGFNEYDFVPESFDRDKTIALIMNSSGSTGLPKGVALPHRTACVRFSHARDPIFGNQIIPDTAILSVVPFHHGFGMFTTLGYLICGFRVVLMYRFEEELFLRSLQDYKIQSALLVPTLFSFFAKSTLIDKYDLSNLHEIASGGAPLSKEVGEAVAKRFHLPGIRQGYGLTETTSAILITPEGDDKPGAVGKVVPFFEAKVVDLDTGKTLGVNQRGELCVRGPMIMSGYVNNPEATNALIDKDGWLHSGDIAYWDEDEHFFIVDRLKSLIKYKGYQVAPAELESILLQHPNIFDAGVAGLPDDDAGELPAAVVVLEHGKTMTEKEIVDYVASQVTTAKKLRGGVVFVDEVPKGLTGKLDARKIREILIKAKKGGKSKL

SMILES | Potency | activity change, negative = inhibition
COCCn1c(C)cc(C(=O)COC(=O)c2ccc(-n3nc(C)cc3C)cc2)c1C | inconclusive: 21.3 µM [inhibitor, partial curve, poor fit] | 
COc1cc2c(cc1OC)C(C)N(C(=O)c1c(C)noc1C)CC2 (centres undefined) |  | inactive: -0.671%
CC(C)(C)c1cc(-c2ccccc2)n[nH]1 | inconclusive: 26.9 µM [inhibitor, partial curve, poor fit] | 
CC1CCc2sc(C(=O)OC(C)C(=O)Nc3ncc(Cl)cc3Cl)cc2C1 (centres undefined) |  | inactive: -3.35%
CC(C)CN(C(=O)COC(=O)Cc1c[nH]c2ccccc12)C1CCS(=O)(=O)C1 (centres undefined) | inconclusive: 23.9 µM [inhibitor, partial curve, poor fit] | 
CC(=O)Nc1nnc(COc2ccccc2)s1 | inconclusive: 23.9 µM [inhibitor, partial curve, poor fit] | 
COc1ccc(OC(=O)c2cnc3n(c2=O)CCS3)cc1 |  | inactive: -11.1%
CCOC(=O)C(Cc1c[nH]c2ccccc12)NC(=O)c1ccco1 (centres undefined) | active: 21.3 µM | 
O=C(Cc1csc(N2CCOCC2)n1)N/N=C/c1cccc(O)c1 | inconclusive: 19 µM [inhibitor, single point] | 
COc1ccc(/C=N/NC(=O)c2ccc3nc[nH]c3c2)c(OC)c1 | active: 16.9 µM | 
CCNc1oc(COc2cccc(C)c2)nc1C#N | inconclusive: 37.9 µM [inhibitor, single point] | 
COc1ccc(-c2noc(-c3ccc(N4CCN(C)CC4)c([N+](=O)[O-])c3)n2)cc1 | inconclusive: 5.36 µM [inhibitor, partial curve] | 
Cc1ccc(NC(=O)CCC(=O)N/N=C/c2ccco2)c(C)c1 |  | inactive: -0.493%
O=C1c2ccccc2NC2(CCCCC2)N1c1ccc(O)cc1 | inconclusive: 23.9 µM [inhibitor, single point] | 
COc1ccc(S(=O)(=O)c2c(O)c(C)cc(NS(=O)(=O)c3ccc(Cl)cc3)c2C(C)C)cc1 | inconclusive: 12 µM [inhibitor, partial curve, poor fit] | 
NC(=O)C1CCN(c2nc(-c3cccc4ccccc34)cs2)CC1 | inconclusive: 33.8 µM [inhibitor, single point] | 
CC1Oc2ccccc2C(=O)N(CC(=O)c2ccc3c(c2)OCCO3)C1=O (centres undefined) | active: 4.78 µM | 
Cc1cc(C)c2nc(NC(=O)c3ccc4c(=O)n5c(nc4c3)CCCCC5)sc2c1 |  | inactive: 1.6%
O=C(NCCc1csc(-c2ccccc2)n1)c1ccccc1F | active: 26.9 µM | 
O=C(Nc1nccs1)c1ccc(-c2ccc(F)cc2)o1 | active: 2.13 µM | 
CC(C)(C)c1ccc(-c2nc(SCCOc3ccc(Cl)cc3)n3[nH]c(=O)cc3n2)cc1 | inconclusive: 33.8 µM [inhibitor, partial curve, poor fit] | 
Cc1ccccc1-n1c(SCC(=O)Nc2ccc(Cl)cc2Cl)nc(O)cc1=O | inconclusive: 12 µM [inhibitor, partial curve, poor fit] | 
O=C(c1cccc(-c2nnc(-c3ccccc3)o2)c1)N1CCCCC1 | active: 16.9 µM | 
CN1CCN(C(=S)NC(=O)c2ccc(C(C)(C)C)cc2)CC1 | inconclusive: 21.3 µM [inhibitor, partial curve, poor fit] | 
O=c1c(N2CCN(c3ccccc3)CC2)csc2ccc(Cl)cc12 | inconclusive: 15.1 µM [inhibitor, partial curve] | 

SMILES | Potency | activity change, negative = inhibition
O=C(CCSCc1cccc(Cl)c1)NCc1ccccc1Cl |  | inactive: -17.1%
O=C(COc1ccccc1Cl)Nc1cccc(S(=O)(=O)N2CCCC2)c1 | active: 19 µM | 
CC(C)n1nnc(-c2ccc(OCc3ccccc3F)cc2)n1 | active: 6.01 µM | 
CCN1c2ccccc2-n2cccc2C12CCN(C(=O)Nc1ccccc1Br)CC2 |  | inactive: -10.6%
CC1CCCN(c2ncnc3c2cnn3-c2ccc(F)cc2)C1 (centres undefined) | active: 0.169 µM | 
COc1ccc(NC(=S)N/C(=N/S(=O)(=O)c2ccc(C)cc2)c2ccccc2)cc1 | inconclusive: 37.9 µM [inhibitor, single point] | 
C=CCc1c(C)[nH]c2c(OC)cccc2c1=S | inconclusive: 23.9 µM [inhibitor, partial curve, poor fit] | 
COc1cccc(CNC(=O)c2cccc(Br)c2)c1 |  | inactive: -10.6%
COc1ccc(C)cc1NC(=O)COC(=O)c1ccc(OCc2ccc(Cl)cc2Cl)c(OC)c1 | inconclusive: 19 µM [inhibitor, partial curve, poor fit] | 
Cc1nc2sc3c(=O)[nH]nnc3c2c(C)c1Br | inconclusive: 23.9 µM [inhibitor, single point] | 
Cc1ccc(-c2nn(-c3ccc(F)cc3F)c3c2cnc2ccc(F)cc23)cc1 |  | inactive: 2.46%
Cc1[nH]c2ccccc2c1N=Nc1ccc(F)cc1 | inconclusive: 21.3 µM [inhibitor, single point] | 
CC(=O)c1ccc(NC(=O)c2cccs2)cc1 | active: 15.1 µM | 
COc1cccc2c3c(c(C)nc12)CC(C)O3 (centres undefined) | inconclusive: 16.9 µM [inhibitor, partial curve, poor fit] | 
COc1ccc(C(=O)O)cc1NC(=S)NC(=O)/C=C/c1ccc(C(C)C)cc1 | active: 10.7 µM | 
Cc1cccc(NC(=O)c2cc(-c3cc(C)c(C)cc3O)n[nH]2)c1 | inconclusive: 0.953 µM [inhibitor, partial curve, poor fit] | 
COc1ccc(CNC(=O)CC23CC4CC(CC(C4)C2)C3)cc1OC | active: 15.1 µM | 
CCOc1ccc(NC(=O)CN(C)C(=O)c2sc3ccccc3c2Cl)cc1OCC |  | inactive: 3.62%
CC1CN(CC(O)COCc2ccc3c(c2)OCO3)CC(C)O1 (centres undefined) |  | inactive: 0.408%
Cc1ccc(Nc2nc(CSc3nnc(-c4cccs4)o3)cs2)cc1 | active: 6.75 µM | 
O=C(O)c1ccc(NCc2nc3ccccc3n2CCOc2ccccc2Cl)cc1 | inconclusive: 12 µM [inhibitor, partial curve] | 
COCCn1c(=O)[nH]c2cc(C(=O)N3CCN(c4ccc(Cl)cc4)CC3)ccc2c1=O | inactive | 
Cc1ccc(C)c(N2CCN(C(=O)CCCn3c(=S)[nH]c4cc5c(cc4c3=O)OCO5)CC2)c1 |  | inactive: 1.58%
CC(C)CN1CCN(Cc2nc3ccccc3s2)CC1CCO (centres undefined) | inconclusive: 19 µM [inhibitor, partial curve, poor fit] | 
CCCC(=O)Nc1sc2c(c1C#N)CCCC2 | inconclusive: 16.9 µM [inhibitor, partial curve] | 

SMILES | Potency | activity change, negative = inhibition
O=C(O)CCN1C(=O)/C(=C\c2cccc(Oc3ccccc3)c2)SC1=S | active: 23.9 µM | 
COc1ccc(NC(=O)c2cc(C(C)=O)n3ccccc23)cc1 | inconclusive: 37.9 µM [inhibitor, single point] | 
O=C(NNC(=O)C1C2C=CC(C2)C1C(=O)O)c1cc(Cl)ccc1O (centres undefined) | inconclusive: 21.3 µM [inhibitor, partial curve, poor fit] | 
CNC(=O)c1ccc2nc(CCc3ccccc3)oc2c1 | inconclusive: 37.9 µM [inhibitor, partial curve, poor fit] | 
N#Cc1ccccc1S(=O)(=O)N1CCN(C(=O)C2CCCC2)CC1 |  | inactive: -0.282%
CC1CCc2c(C(=O)Nc3ccc(N4CCOCC4)cc3)csc2C1 (centres undefined) | inconclusive: 37.9 µM [inhibitor, partial curve, poor fit] | 
COc1cccc(C(=O)Nc2ccc(NC(=O)C3CC3)cn2)c1 | active: 7.57 µM | 
c1ccc(-c2nc(-c3cccnc3)cs2)cc1 | active: 12 µM | 
COc1ccc(-c2nc(SCC(=O)Nc3ccccc3)c(-c3ccc(F)cc3)[nH]2)cc1OC | inconclusive: 15.1 µM [inhibitor, partial curve, poor fit] | 
CCCC(=O)Nc1ccc(NC(=O)c2cc3ccccc3o2)c(OC)c1 | inconclusive: 6.75 µM [inhibitor, partial curve, poor fit] | 
Cc1ccc(CCN2CC(C(=O)NC3CCCCC3)CC2=O)cc1 (centres undefined) |  | inactive: 4.07%
COc1cccc(N2CC(C(=O)Nc3c(C(N)=O)oc4ccccc34)CC2=O)c1 (centres undefined) |  | inactive: 1.22%
COc1ccc(NC(=O)CSc2nc3ccccc3c(=O)[nH]2)cc1S(N)(=O)=O | active: 19 µM | 
COCCCN1C(=O)c2ccc(C(=O)Nc3ccccc3Cl)cc2C1=O | inconclusive: 13.5 µM [inhibitor, partial curve, poor fit] | 
CC(=O)NC(CC(=O)Nc1ccc(S(=O)(=O)NC2=NCCCCC2)cc1)c1ccccc1 (centres undefined) |  | inactive: 2.5%
COCCNc1ccc(-c2nc(-c3ccncc3)no2)cc1[N+](=O)[O-] | inconclusive: 37.9 µM [inhibitor, single point] | 
Cc1cc(C)c(O)c(-c2cc(C(=O)NCc3ccccc3)[nH]n2)c1 | inconclusive: 37.9 µM [inhibitor, single point] | 
Cc1cc(OCc2cc(C(=O)N(C)CC3CCOCC3)no2)cc(C)c1Cl | inconclusive: 23.9 µM [inhibitor, partial curve] | 
O=C(Nc1ccc(F)cc1F)c1cccc2c1C(=O)N(C1CCCCC1)C2 |  | inactive: -0.332%
Cn1cnnc1SCC(=O)c1cc2ccccc2o1 |  | inactive: -3.44%
Cc1ccccc1CN1CCc2nc(N3CCN(c4ncccn4)CC3)ncc2C1 |  | inactive: -0.0684%
CCc1c(C)sc(NC(=O)c2cc(C(C)C)on2)c1C#N | inconclusive: 12 µM [inhibitor, partial curve] | 
COc1ccc(CCCc2nnc(SCC(=O)Nc3cccc(C)c3)o2)cc1C | inconclusive: 37.9 µM [inhibitor, single point] | 
CCOc1ccccc1C(=O)Oc1c(S(=O)(=O)c2ccc(C)cc2)c(C)nn1-c1ccccc1 | inconclusive: 10.7 µM [inhibitor, partial curve] | 
